Experimental data from PubChem BioAssay AID686979 (National Center for Advancing Translational Sciences (NCATS), 2013).
Where “and” joins values, the source holds several entries; their conditions need not be identical. Equal values may be shown once. In all, about 420,000 compounds went through this assay and about 50,000 (12%) were called active. This list was built around the results that the source calls inconclusive (neither active nor inactive); the mix of calls is not that of the screen. The call rests on the fitted dose curve; in most records, active means well fitted inhibition curve with a large enough effect; inconclusive means small, poorly fitted or top-dose-only effect; inactive means flat fitted curve, though single readings scatter. Potencies of inconclusive entries are left out as doubtful fits.

Experiment: qHTS for Inhibitors of human tyrosyl-DNA phosphodiesterase 1 (TDP1): qHTS in cells in presence of CPT; further: nearly all actives have a fitted effect of over 55% in size
Details: chicken DT40 Tdp1-/-;hTDP1 cells + 20 nM CPT, ATP luminescence, 48 h; activity change, negative = growth inhibition: at 46.2 µM (top of the series) unless noted
How it was run: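 Chicken DT40 Tdp1-/- cells stably complemented with human TDP1 were seeded at 400 cells/well in medium containing 20 nM camptothecin, exposed to pin-transferred compounds, and grown at 37 °C for at least 48 hr. Viability was read as ATP luminescence.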
On the % scale 0 is the no-effect control and ±100 the full control effect; potency means the concentration at half of the fitted maximal effect; tags describe the fitted curve by direction and shape.

SMILES | Potency | activity change, negative = growth inhibition
CCN1CCN(Cc2c(O)ccc3c(C)c(-c4ccc(OC)cc4)c(=O)oc23)CC1 | inconclusive [inhibitor, single point] | 
O=C(NC1CC1)c1sc2cc([N+](=O)[O-])ccc2c1Cl | inactive | 
COc1cc(C(=O)NCC(c2cccs2)N(C)C)cc(Cl)c1OC(C)C (stereo not drawn) | inconclusive [inhibitor, partial curve] | 
CCCN1CCC(NC(=S)Nc2ccc(OC)c(OC)c2)CC1 | inconclusive [inhibitor, single point] | 
Cc1ccccc1C(=O)Nc1cccc(OCc2cc(=O)n3c(C)csc3n2)c1 | inactive | 
Cc1ccc(CNc2nc3cc(-c4ccccc4)sc3c(=O)n2C)c(C)c1 | active: 16.4 µM | 
Cc1ccc(S(=O)(=O)N2CCC(C(=O)NCc3ccccc3Cl)CC2)cc1 | inconclusive [inhibitor, single point] | 
CCc1c(C2CC2)ncn1Cc1cccc(-c2ccccc2)c1 | active: 1.84 µM | 
COC(=O)C1=C(C(=O)OC)[C@@H]2Nc3ccccc3[C@@]23C[C@@H](C(=O)OC)N=C3N1 | inactive | 
Cc1ccnc(NC(=O)c2ccc(Cl)c(NC(=O)c3ccccc3C)c2)c1 | inconclusive [inhibitor, single point] | 
CCN(CC)CCOC(=O)c1ccc(NC(=O)c2cc3c(=O)n(CC)c4ccccc4c3s2)cc1 | active: 5.17 µM | 
O=S(=O)(Nc1nc(-c2ccco2)c(-c2ccco2)s1)c1ccc(F)cc1F | inactive | 
Cc1cc(SCC(=O)NCc2ccc(Cl)cc2)nc(=O)[nH]1 | inactive | 
Cc1ccc(C(C)(c2ccc(N)cc2)c2ccc(N)cc2)cc1 | inactive | 
O=S(=O)(NCc1cccnc1)c1ccc2c(c1)OCCO2 | inconclusive [inhibitor, partial curve, poor fit] | 
Clc1ccccc1Cn1nnc2ccccc21 | inactive | 
COc1ccc(C(=O)Nc2nc(CC(=O)NCCc3ccccc3OC)cs2)cc1 | inconclusive [inhibitor, single point] | 
CCCCCn1c(=O)[nH]c2cc(C(=O)Nc3ccc(F)c(F)c3)ccc2c1=O | inactive | 
N#Cc1ccc(-c2cccs2)nc1SCC(=O)Nc1cccc(C(F)(F)F)c1 | inconclusive [inhibitor, single point] | 
CN(CC(=O)Nc1ccc(F)cc1)C(=O)CCc1nc2sc3c(c2c(=O)[nH]1)CCCC3 | inactive | 
O=C(CCCC(=O)NCc1ccccc1)NCc1ccccc1 | inconclusive [inhibitor, single point] | 
COc1cc(O)c2c(=O)c3c(O)c(O)ccc3oc2c1OC | inconclusive [inhibitor, single point] | 
NS(=O)(=O)c1ccc(NNC(=O)c2ccc(Br)o2)c([N+](=O)[O-])c1 | inconclusive [inhibitor, single point] | 
CSc1nc(C)cc(SCCO)n1 | inactive | 

SMILES | Potency | activity change, negative = growth inhibition
O=C(NCC1CCCO1)c1nn2c(C(F)(F)F)cc(-c3ccc(Br)o3)nc2c1Br (stereo not drawn) | inconclusive [inhibitor, single point] | 
CCOc1ncccc1C(=O)OCC(=O)NC(=O)NC(C)C | inactive | 
Cc1ccc(/C=C/C(=O)N(Cc2cccs2)C2CCS(=O)(=O)C2)cc1 (stereo not drawn) | inconclusive [inhibitor, single point] | 
CC(=O)SC1CC2=CC(=O)CC[C@@]2(C)C2CC[C@@]3(C)[C@@H](CC[C@@]34CCC(=O)O4)C12 (stereo partly drawn) | active: 13 µM | 
O=C(COc1ccccc1)N1CCN=C1SCc1ccc(F)cc1 | inactive | 
O=C(NC(=S)N1CCN(c2ccc(F)cc2)CC1)C12CC3CC(CC(C3)C1)C2 | inconclusive [inhibitor, single point] | 
O=C(/C(=N/O)c1ccccc1)c1ccccc1 | inactive | 
CCc1nc2ccc(C(=O)Nc3ccc(OC)c(OC)c3)cn2c1N(C)Cc1cccs1 | inconclusive [inhibitor, single point] | 
CC1CCc2sc(C(=O)N3CCN(c4ncccn4)CC3)cc2C1 (stereo not drawn) | inconclusive [inhibitor, single point] | 
CC1(C(=O)NS(=O)(=O)c2ccccc2C(F)(F)F)CCN1C(=O)CCC1CCCC1 (stereo not drawn) | inactive | 
CCOC(=O)/C(C#N)=C/c1c(Oc2cc(C)cc(C)c2)nc2ccccn2c1=O | inactive | 
COc1ccc([C@@H](NC(=O)OC(C)(C)C)C(=O)OC(C)(C)C)cc1 | inconclusive [inhibitor, single point] | 
Cn1c2ccccc2c2c(C(=O)N3CCN(C(=O)c4ccco4)CC3)cn(C3CCCCC3)c(=O)c21 | inconclusive [inhibitor, single point] | 
CC(=O)c1c(C)oc2ccc(N(C(C)=O)S(=O)(=O)c3cccc4cccnc34)cc12 | active: 2.06 µM | 
O=C(NCCN1CCOCC1)C(=O)NCc1ccco1 | inactive | 
Cc1ccccc1OCCn1cc(C(=S)N2CCN(C)CC2)c2ccccc21 | inconclusive [inhibitor, single point] | 
CC(C)=NNc1nc2sc3c(c2c(=O)[nH]1)CC(C)(C)OC3 | inconclusive [inhibitor, single point] | 
O=C(CN1C(=O)COc2ccccc21)NCCCN1CCc2ccccc2C1 | inconclusive [inhibitor, partial curve] | 
CCC(=O)c1cccc(-c2ccccc2)c1CC | inactive | 
O=C(Nc1ccc(Br)cc1)NC1CCCCCCC1 | inconclusive [inhibitor, single point] | 
COc1ccccc1N1CCN(c2ncnc3c2nnn3C)CC1 | inconclusive [inhibitor, partial curve] | 
O=C(Nc1nnc(CC2=CCCCC2)s1)Nc1ccccc1F | inconclusive [inhibitor, single point] | 
CC(=O)c1c(C(C)=O)c(C)n(-c2nc(-c3ccccc3)c(C)s2)c1C | inconclusive [inhibitor, single point] | 
CCCCCOc1ccc(/C(C)=N/NC2=NCCN2)cc1 | inconclusive [inhibitor, single point] | 

SMILES | Potency | activity change, negative = growth inhibition
Cc1cc(F)ccc1NC(=O)c1cc(S(=O)(=O)N2CCc3ccccc32)cn1C | inconclusive [inhibitor, single point] | 
CCNc1ncc2ncc(=O)n(C3CC3)c2n1 | inconclusive [inhibitor, single point] | 
COc1ccc(NC(=O)C2CCN(S(=O)(=O)c3cccc(-c4noc(C)n4)c3)CC2)cc1OC | inconclusive [inhibitor, single point] | 
Cc1cccc(CN2[C@H](COCc3ccccc3)C=CS2(=O)=O)c1 | inconclusive [inhibitor, partial curve, poor fit] | 
CCOC(=O)c1oc2ccc(S(=O)(=O)n3nc(-c4ccc(C)cc4)cc3N)cc2c1C | active: 18.4 µM and active: 11.6 µM | 
CCCCn1nc2cc(C(=O)NCc3ccccc3)ccc2c1OCC | inconclusive [inhibitor, single point] | 
CC(C)c1ccc(S(=O)(=O)N2CCC(n3c(C(F)(F)F)nc4cccnc43)CC2)cc1 | inconclusive [inhibitor, single point] | 
CCOCCCNC(=O)CN1CCN(c2ccc(F)cc2)CC1 | inactive | 
CC(OC(=O)c1ccncc1)C(=O)Nc1cc(S(=O)(=O)N2CCCCC2)ccc1Cl (stereo not drawn) | inactive | 
Nc1ccccc1S(=O)(=O)C(F)F | inactive | 
CCCN(Cc1ccccc1)C(=S)Nc1cccc(C(F)(F)F)c1 | inconclusive [inhibitor, single point] | 
CCOCCn1ccc2c(OCC(=O)Nc3ccc(C(N)=O)cc3)cccc2c1=O | inconclusive [inhibitor, single point] | 
CC(C)c1ccc(CN(C(=O)c2cc3ccccc3oc2=O)C2CCS(=O)(=O)C2)cc1 (stereo not drawn) | inconclusive [inhibitor, single point] | inconclusive: -30.2% [inhibitor]
Cc1ccc(S(=O)(=O)NCc2ccncc2)cc1C | active: 2.91 µM | 
CCOC(=O)N1CCC(Nc2c(-c3ccc(C)cc3)c(=O)c2=O)CC1 | inconclusive [inhibitor, single point] | 
Cc1cc(C)nc(NC(=O)C(c2ccccc2)c2ccccc2)n1 |  | inconclusive: -34% [inhibitor]
c1ccc2c(c1)CCOC2CNCCCN1CCCCC1 (stereo not drawn) | inconclusive [inhibitor, single point] | 
CCN(c1ccccc1)S(=O)(=O)c1ccc(C(=O)NCC2(N(C)C)CCCCC2)cc1 | inconclusive [inhibitor, single point] | 
CS(=O)(=O)N1CCN(c2ccccc2NC(=O)c2ccc(Br)o2)CC1 | inactive | 
CCn1c(CCC(=O)Nc2cc(F)ccc2C)nc2cc(S(=O)(=O)N(C)C)ccc21 | inconclusive [inhibitor, partial curve] | 
COc1ccc(C2NC(=O)N(C)C3=C2C(=O)N(c2ccc(Br)cc2)C3)cc1 (stereo not drawn) | inconclusive [inhibitor, single point] | 
O=C(NC1CCCCC1)C1CC(=O)N(c2cccc([N+](=O)[O-])c2)C1 (stereo not drawn) |  | inconclusive: -36.7% [inhibitor]
COC(=O)/C=C1\OC(c2ccccc2)c2ccccc21 (stereo not drawn) | inconclusive [inhibitor, single point] | 
NC(N)=NC(N)=Nc1ccc(O)cc1 | inactive | 
